# Measured values taken from PubChem BioAssay AID624170 (National Center for Advancing Translational Sciences (NCATS), 2012).
# Out of some 410,000 compounds screened, about 850 (0.21%) were called active. This list was built around the results that the source calls inconclusive (neither active nor inactive); the mix of calls is not that of the screen. Calls follow the shape of the dose curve; as a rule, active = well fitted inhibition curve with a large enough effect; inconclusive = small, poorly fitted or top-dose-only effect, or another doubt; inactive = no such curve, though single readings can be large or run the other way. Potencies of inconclusive entries are left out as doubtful fits.
# Biological target: Glutaminase kidney isoform, mitochondrial (Homo sapiens) (UniProt O94925)
# Assay: qHTS for Inhibitors of Glutaminase (GLS)
# Details: GLS enzymatic activity, qHTS titration; series mostly up to 45.5 µM; activity change, negative = inhibition: at the top concentration
# Summary of the method: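 Human kidney-isoform GLS in 45 mM KH2PO4 pH 8.2, 0.02% Tween-20, with compound, started with 1mM L-Glutamine (added stock). Glutamate oxidase/HRP/Amplex red coupled fluorescence read at start and after 30 min at RT.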
# % is scaled to controls: 0 for no effect and ±100 for the full control effect; potency is read from the fitted curve at half-maximal effect; tags tell the direction and shape of the fitted curve.
# UniProt O94925, sequence (O94925 whole entry, looked up, canonical isoform): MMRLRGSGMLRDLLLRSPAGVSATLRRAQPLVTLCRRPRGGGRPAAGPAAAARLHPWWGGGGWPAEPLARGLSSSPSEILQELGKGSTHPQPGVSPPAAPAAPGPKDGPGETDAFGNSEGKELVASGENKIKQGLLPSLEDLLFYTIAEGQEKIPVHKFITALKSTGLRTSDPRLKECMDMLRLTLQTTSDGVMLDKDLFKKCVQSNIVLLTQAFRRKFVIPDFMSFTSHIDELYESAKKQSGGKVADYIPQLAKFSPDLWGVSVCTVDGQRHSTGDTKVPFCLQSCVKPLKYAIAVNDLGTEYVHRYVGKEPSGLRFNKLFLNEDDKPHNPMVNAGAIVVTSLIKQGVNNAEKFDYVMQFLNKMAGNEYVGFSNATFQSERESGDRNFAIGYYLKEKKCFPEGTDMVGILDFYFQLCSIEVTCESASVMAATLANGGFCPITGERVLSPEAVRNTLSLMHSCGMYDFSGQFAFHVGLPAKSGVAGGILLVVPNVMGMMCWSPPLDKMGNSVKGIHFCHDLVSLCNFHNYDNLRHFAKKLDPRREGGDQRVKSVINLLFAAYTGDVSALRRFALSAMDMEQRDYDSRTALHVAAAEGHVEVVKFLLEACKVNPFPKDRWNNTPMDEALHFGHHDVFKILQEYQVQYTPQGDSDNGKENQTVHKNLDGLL
Structure (SMILES),"activity change, negative = inhibition",Potency
CC(=O)Nc1ccc(Nc2nc3ccccc3nc2NS(=O)(=O)c2ccc(Cl)c([N+](=O)[O-])c2)cc1,inactive: 3.32%,–
COc1ccc(N2Cc3cccc(C(=O)Nc4ccc(C(C)C)cc4)c3C2=O)cc1,–,"inconclusive [inhibitor, partial curve, poor fit]"
CCN(CC)CCN1C(=O)C(=O)/C(=C(/O)c2ccc(S(=O)(=O)N3CCOCC3)cc2)C1c1ccccc1 (configuration not stated),–,"inconclusive [inhibitor, partial curve, poor fit]"
C/C(=N\Nc1nc(C)cc(C)n1)c1ccc(C)o1,–,"inconclusive [inhibitor, single point]"
CCOC(=O)C1=C(C)OC(N)=C(C#N)C1c1ccc(C)s1 (configuration not stated),–,"inconclusive [inhibitor, full curve]"
CC(NC(=O)CCSc1nc(-c2ccco2)cc(C(F)(F)F)n1)c1ccccc1 (configuration not stated),–,"inconclusive [inhibitor, single point]"
CCOC(=O)c1c(/N=C/N(C)C)sc(/C=N/Nc2ccccc2)c1-c1ccc(Cl)cc1,inactive: 18.3%,–
COc1ccc(-n2nc3ccccc3n2)cc1,inactive: -3.16%,–
C[n+]1ccccc1/C=C/c1ccc2ncccc2c1,inactive: -1.44%,–
c1ccc(OCc2nn3c(Cn4cnc5ccccc54)nnc3s2)cc1,–,"inconclusive [inhibitor, single point]"
CC(C)(C)c1cc(CCC(=O)NCCc2ccccn2)cc(C(C)(C)C)c1O,–,active: 10 µM
Cc1ccc(C=Nc2ccccc2C(N)=O)o1,inactive: 1.9%,–
CC(C)OCCCNC(=O)c1cn(C)c2ccc(S(=O)(=O)N3CCCCCC3)cc2c1=O,inactive: -0.878%,–
CCOc1cc(/C=C2\SC(=S)N(C(C(=O)O)c3ccccc3)C2=O)ccc1O (configuration not stated),–,"inconclusive [inhibitor, single point]"
O=C(O)CSc1ncnc2c1sc1nc(-c3ccccc3)c3c(c12)CCC3,–,"inconclusive [inhibitor, single point]"
c1csc(Cc2nn3c(-c4n[nH]c5c4CCC5)nnc3s2)c1,–,"inconclusive [inhibitor, single point]"
COc1ccc(OC)c2sc(NC(=O)C3=COCCO3)nc12,–,"inconclusive [inhibitor, single point]"
CN(C)CCCCOc1ccccc1F,–,"inconclusive [inhibitor, single point]"
O=S1(=O)CC(N2CCN(CCO)CC2)CN1Cc1cn(Cc2ccc(C(F)(F)F)cc2)nn1 (configuration not stated),–,"inconclusive [inhibitor, partial curve, poor fit]"
Cc1ccccc1Nc1nnc(SCC(=O)N(C)C2CCS(=O)(=O)C2)s1 (configuration not stated),–,"inconclusive [inhibitor, single point]"
O=C(O)c1cc2ncc(-c3[nH]ncc3[N+](=O)[O-])cn2n1,–,"inconclusive [inhibitor, partial curve]"

Structure (SMILES),"activity change, negative = inhibition",Potency
Nc1ccccc1Nc1nc2ccccc2[nH]1,–,"inconclusive [inhibitor, partial curve]"
CCc1nc(Nc2ccccc2)c2nnn(Cc3ccccc3)c2n1,inactive: -2.62%,–
CCOc1cc(C(=S)N2CCCC2)ccc1O,–,"inconclusive [inhibitor, partial curve, poor fit]"
Cc1cc(C)n2c(C)nnc2c1,–,"inconclusive [inhibitor, single point]"
COc1cc2c(C(=O)O)c(C)n(CC(C)C)c2c2ccccc12,–,"inconclusive [inhibitor, single point]"
Cc1ccc(-n2c(-c3ccc(Br)cc3)n[nH]c2=S)c(C)c1,–,"inconclusive [inhibitor, full curve, poor fit]"
CN1CCc2c(sc3c2C(=O)NC(c2ccc(OC(=O)c4ccccc4)cc2)N3)C1 (configuration not stated),–,"inconclusive [inhibitor, single point]"
COc1ccccc1OCCCSc1nc(-c2ccc(C(C)(C)C)cc2)nc2cc(=O)[nH]n12,inactive: -12.6%,–
CCC(=O)Nc1ccc(OC)cc1OC,–,"inconclusive [inhibitor, single point]"
CC1OC(OCC2OC(Oc3c(-c4ccc(O)cc4)oc4cc(O)cc(O)c4c3=O)C(O)C(O)C2O)C(O)C(O)C1O (configuration not stated),–,"inconclusive [inhibitor, partial curve]"
COc1ccc(C2=Nc3ccccc3OC2)cc1,–,"inconclusive [inhibitor, single point]"
CCN(CC)c1ccc(/C=N/NC(=O)c2cccc(S(=O)(=O)Nc3ccccc3OC)c2)c(O)c1,–,"inconclusive [inhibitor, single point]"
Cc1nn(C)c(Oc2cccc(C(F)(F)F)c2)c1C#N,–,"inconclusive [inhibitor, single point]"
C/C(=N\NC(=O)c1cc(O)ccc1O)c1cccc(NC(=O)c2ccc(Cl)cc2)c1,–,"inconclusive [inhibitor, full curve]"
Cc1nn(CC(=O)N2CC(=O)Nc3ccccc32)c(C)c1[N+](=O)[O-],–,"inconclusive [inhibitor, single point]"
Nc1c(/C=C2/C=CC(=O)C(O)=C2)c(=O)nc2sc(CC(=O)N3CCCC3)nn12,–,"inconclusive [inhibitor, single point]"
C=CCNC(=S)NNC(=O)CSc1nc2ccccc2s1,–,"inconclusive [inhibitor, single point]"
CCOC(=O)N1CCN(C(=O)/C(=C/c2cccc3ccccc23)NC(=O)c2ccc(OC)cc2)CC1,–,"inconclusive [inhibitor, single point]"
COc1ccccc1-n1c(SCC(=O)Nc2ccc(NC(C)=O)cc2)nc2c([nH]c3ccccc32)c1=O,–,"inconclusive [inhibitor, single point]"
O=C(Nc1ccc(Br)c2ccccc12)c1ccc2ccccc2c1O,inactive: 16%,–
O=[N+]([O-])c1cc2oc3c(c2c(C=NCc2ccncc2)c1O)CCCC3,–,"inconclusive [inhibitor, single point]"
